Experimental data as given in the RNAGym collection of RNA variant scans (doi:10.1093/nar/gkz1192).
The source gives no read counts; variants with many changes may rest on few reads.

B1: CPEB3 Ribozyme (parent)
chain: UAACAGGGGGCCACAGCAGAAGCGUUCACGUCGCAGCCCCUGUCAGAUUCUGGUGAAUCUGCGAAUUCUGCUGUAUAUCUC

Variants of: B1
Assay: self-cleavage, relative activity (ratio to wild type); higher = more cleavage; in vitro, sequencing
Procedure, shortened: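 CPEB3 self-cleaving ribozyme mutant libraries were made by rounds of error-prone PCR, barcoded, and transcribed in vitro with T7 RNA polymerase for 5 hours at 37°C. Cleavage occurred during transcription and a 15 min DNase I step before EDTA stop. RNAs were reverse transcribed with template switching and Illumina-sequenced, with DNA sequencing mapping barcodes to variants. Relative activity is the variant's cleaved/total read fraction divided by wild type's (minimum 5 reads), averaged across three batches.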

| Variant | self-cleavage |
| --- | --- |
| C32G C37A U67C | 0.1 |
| U31C U49A U54A A64G | 0.13 |
| C34U A57U U76C | 0.27 |
| G33A A35G U43C A77G | 0.15 |
| C34U U41A U48C C62U | 0.15 |
| C32G A45U U67A | 0.14 |
| G33C U49C U54C U69C | 0.31 |
| G33A U49A U58C | 0.12 |
| C32U U41C U66C U78C | 0.12 |
| C32U U43C U49C A56G | 0.53 |
| U31G U51A U80C | 0.62 |
| U31C U54C U60A G73C | 0.68 |
| C32A C50U U51G A64G | 0.2 |
| C32A A56G U69C | 0.14 |
| C34U C44U U51A U60C U78A | 0.06 |
| G33C C40A U41A A65G | 0.08 |
| C34U A35G C38U | 0.43 |
| C34U A64G U72A | 0.19 |
| U31C U49A U51C A56G U67C U78A | 0.2 |
| A35C U41C U67C | 0.21 |
| U31G U48C U72C | 0.11 |
| C32A A57U U78A | 0.1 |
| U31G G33A A47G A64G U78C | 0.17 |
| G33A A35U U69A | 0.14 |

| Variant | self-cleavage |
| --- | --- |
| C32A G46A U66C | 0.08 |
| U31C U67G A75G | 0.14 |
| C32G U54G U72C U74C | 0.08 |
| C32U A75G A77G | 0.14 |
| G33A U43C A57C U67C U76C | 0.05 |
| U31C U69A U72A | 0.4 |
| C32U A35G C40U U41G A64G U67A | 0.06 |
| C32U U51C U54A U60C U72C U80C | 0.18 |
| U31C U66G U69A | 0.38 |
| G33A U48A A57G | 0.12 |
| C32U U54C A65G | 0.16 |
| A35C U51C U54C C81U | 0.84 |
| G33A A47G C50A | 0.18 |
| A35C U51A G73U | 1.38 |
| C34A U58A A65G | 0.12 |
| C34G U43C U51C U60A U69C | 0.16 |
| G33A U51C U60C U76A | 0.17 |
| C34A U51C U54A U80C | 0.17 |
| C32U U54C U58G | 0.12 |
| A35C U41C U51A | 1.02 |
| U31C U49C U67C U74C | 0.11 |
| U31C U67A U69C | 0.15 |
| G33A G36U U43C G52A U69A | 0.43 |
| U31C U54C U72A | 0.53 |

| Variant | self-cleavage |
| --- | --- |
| U31C U54C U72C | 1.2 |
| C32A U60C U78C C79U | 0.24 |
| C32U U41C C62G | 0.15 |
| U31C U43G U80C | 0.38 |
| G33A G42A U74G | 0.06 |
| G33U A35G A56G U60C U67C U80C | 0.04 |
| C32U U48A U58C | 0.14 |
| C32U A47G U48C A64U | 0.11 |
| A35G A45C U67C U80C | 0.19 |
| G33C U41A U78A | 0.17 |
| C34G U54C A56G A57C | 0.05 |
| C32U U49C U51A U72G | 0.09 |
| G33A U43C U67C A75G | 0.06 |
| A35G A45G A47G U74G | 1.28 |
| G33A U67C U78C U80C | 0.08 |
| C32A U41A C68U | 0.14 |
| G33A U43C G52C U69A | 0.07 |
| G33A U41A A47G U60C U66C | 0.09 |
| G33U U69A U74C | 0.06 |
| A35C U72A U74C | 1.18 |
| C34U U51A A75G U78C | 0.14 |
| C32A A45U U54C | 0.07 |
| C32A A45U U54A | 0.23 |
| U31C U43C C50A | 0.2 |

| Variant | self-cleavage |
| --- | --- |
| C32U U49A U67C | 0.11 |
| C32U U67C U69C | 0.05 |
| G33A A45G U49C | 0.22 |
| C32A U43C U69A A75G | 0.28 |
| G33U A56U U60C | 0.15 |
| C34A A47G U72C U78C | 0.12 |
| C32A U51C A57G U66C U74C U78C | 0.05 |
| C32U G52C U60A | 0.14 |
| C34A U41C C81U | 0.48 |
| C34A A45U U48C U67A G70A | 0.17 |
| G33A U43G U58A G61A | 0.12 |
| U31G A57G U78A | 0.45 |
| C32U A47G A77U | 0.29 |
| U31G C38U C39U U78C | 0.13 |
| C32A U58A U66C A77G | 0.18 |
| C32U A35G U41C U49A U51A A56U | 0.14 |
| C32A U72A U78C | 0.13 |
| G33A A56G A57G U60C | 0.37 |
| G33C U67A U78C | 0.04 |
| C32A U43C U51C | 0.24 |
| U31G U58C U69C | 0.12 |
| G33A U51C U76A | 0.21 |
| G33A C37U A64G U66C C71G | 0.14 |
| A35C A45G U78C | 0.19 |

| Variant | self-cleavage |
| --- | --- |
| U31G U41C C62U | 0.11 |
| G33A U41A U48C | 0.19 |
| A35G A45G A57G U69A U76C | 1.03 |
| G33C U41A U48C A64G | 0.14 |
| A35C U69C U80C | 0.23 |
| C32A C37A U54G U58A A65G C71G | 0.11 |
| A35C U48C A57C U58C | 0.16 |
| G33C A35U C40A U43C A65G | 0.12 |
| U31C U48C A64G | 0.16 |
| C32U U60A U67C | 0.12 |
| U31G C32U U48C A56U U80C | 0.08 |
| U31G U43C U49G A57G U60C | 0.12 |
| G33U G63U U76G A77U | 0.17 |
| G33A A45G C50A U76C | 0.07 |
| U31C U51C U66A | 0.21 |
| G33A A45G A57G U60C U66C U80C | 0.25 |
| U31C U49C A56G | 0.73 |
| C34A U43C C44U A45G A57G | 0.05 |
| G33A A35G U72C | 0.57 |
| C32A U60C U67A | 0.12 |
| U31G A57U U66A U67C | 0.09 |
| U31C U78C U80A | 1.04 |
| U31C U51C A64G U80A | 0.38 |
| G33A A45U U51A U67C | 0.05 |

| Variant | self-cleavage |
| --- | --- |
| G33A A35G U51A U72C | 0.17 |
| C32A A57G U74C | 0.08 |
| U31C U51A A75G | 0.76 |
| A35G A45G A47U | 1.12 |
| G33A U58A U60C U72C | 0.18 |
| G33A A35G U60C | 0.13 |
| C34A U54C A64G | 0.19 |
| C32U U48C U49C | 0.13 |
| A35C U41C U76A | 0.82 |
| U31G U41A U72C A75U | 0.24 |
| G33U A57G U60C U67C | 0.08 |
| C34U A35G U80C | 0.46 |
| C34G U78C C79U U80A | 0.11 |
| C32A U60A G63A | 0.19 |
| C32U U51C A57G U67C | 0.14 |
| G33A A35U A45U A64C U80A | 0.06 |
| G33A U51A U60A | 0.16 |
| C34U A35U A45G U58C G63A C71A | 0.05 |
| C32U U41A U60C | 0.15 |
| G33C A35G U74A | 0.03 |
| U31G A35U A56U U69C U72G U80A | 0.09 |
| G33A U43C U51C U60A | 0.3 |
| A35C A56G G61A | 0.4 |
| C32U A57G U80C | 0.11 |

| Variant | self-cleavage |
| --- | --- |
| U31C U51A U72C U80C | 0.86 |
| U31C U54A A65G U80C | 0.33 |
| C32U A35U A57G | 0.18 |
| C32U A56G U69C | 0.11 |
| C32A A65G U66C U78C | 0.13 |
| C34U G70A U72C | 0.12 |
| U31C U60C U72C | 0.27 |
| C32U U54C U78C | 0.12 |
| G33C C38U U41C U72A | 0.07 |
| U31C U54A C62A | 0.44 |
| G33C G46U A65G | 0.12 |
| C32U U48C U54A | 0.14 |
| U31C U54C U76C | 1.25 |
| C34A U41C U58C A64G U78C | 0.13 |
| U31C U49C U66A | 0.15 |
| U31C U60G U76A | 0.36 |
| G33C G36A U51G G70A U72C | 0.06 |
| G33U A35U U60G | 0.12 |
| U31G A47G U48C | 0.42 |
| G33A U41A A47G | 0.64 |
| G33U U54A U69A | 0.15 |
| G33U C39U U43C U60C | 0.08 |
| C32U U60G U74C A75U U78C | 0.08 |
